Source: paper PMC4336329 (PLoS ONE, 2015)
The whole screen tested about 310,000 compounds, of which about 14,000 (4.5%) showed an effect of 50% or more. Effects have a minus sign here. This is one part of the list.

Molecular target: human ether-à-go-go-related gene (hERG) potassium channel (human, UniProt Q12809)
Assay: primary screen, population patch clamp on CHO cells stably expressing hERG
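Further: peak tail current of the secondary pulse compared with the same well before compound.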

human ether-à-go-go-related gene (hERG) potassium channel, sequence (Q12809 whole entry, looked up): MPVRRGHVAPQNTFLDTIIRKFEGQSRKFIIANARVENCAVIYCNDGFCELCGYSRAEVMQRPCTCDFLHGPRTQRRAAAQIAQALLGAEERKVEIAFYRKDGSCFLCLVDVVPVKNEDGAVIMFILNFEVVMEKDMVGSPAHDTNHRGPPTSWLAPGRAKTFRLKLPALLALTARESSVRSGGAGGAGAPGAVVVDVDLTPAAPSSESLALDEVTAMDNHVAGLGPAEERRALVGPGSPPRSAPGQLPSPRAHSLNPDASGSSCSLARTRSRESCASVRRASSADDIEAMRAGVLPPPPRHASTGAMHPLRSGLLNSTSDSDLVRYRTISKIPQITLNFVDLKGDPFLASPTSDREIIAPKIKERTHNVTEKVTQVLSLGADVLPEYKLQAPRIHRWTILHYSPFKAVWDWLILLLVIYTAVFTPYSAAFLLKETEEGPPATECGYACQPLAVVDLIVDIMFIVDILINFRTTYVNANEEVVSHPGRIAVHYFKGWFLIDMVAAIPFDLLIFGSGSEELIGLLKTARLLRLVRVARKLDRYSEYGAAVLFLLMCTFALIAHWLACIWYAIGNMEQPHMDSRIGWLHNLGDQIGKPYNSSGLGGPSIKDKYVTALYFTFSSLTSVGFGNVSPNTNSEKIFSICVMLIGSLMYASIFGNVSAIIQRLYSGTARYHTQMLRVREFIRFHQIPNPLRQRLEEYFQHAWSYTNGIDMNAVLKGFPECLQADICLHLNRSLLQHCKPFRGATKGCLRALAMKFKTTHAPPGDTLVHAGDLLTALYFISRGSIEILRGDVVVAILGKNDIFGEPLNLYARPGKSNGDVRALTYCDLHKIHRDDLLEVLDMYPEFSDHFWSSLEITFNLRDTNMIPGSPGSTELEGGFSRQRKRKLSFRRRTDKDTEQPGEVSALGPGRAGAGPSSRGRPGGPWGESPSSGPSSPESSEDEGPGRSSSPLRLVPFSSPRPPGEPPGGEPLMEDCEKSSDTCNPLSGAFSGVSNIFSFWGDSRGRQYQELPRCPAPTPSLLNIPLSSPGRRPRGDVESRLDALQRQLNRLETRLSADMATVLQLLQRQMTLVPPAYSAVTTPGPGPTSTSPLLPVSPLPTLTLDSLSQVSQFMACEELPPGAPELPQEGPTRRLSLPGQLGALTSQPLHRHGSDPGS

| Compound | hERG current change (%, negative = inhibition) at 10uM [%] |
| --- | --- |
| CCOc1ccc(-c2nnc(-c3ccc(OC)cc3)o2)cc1 | 3.17 |
| COc1ccc(-n2cccc2C=O)cc1OC | 24.6 |
| Cc1nnc(SCC(=O)NC(C)(C)C)n1C1CCCCC1 | 0.248 |
| CCOc1ccc(N(C(=O)c2cnccn2)C(C(=O)NC2CCCCC2)c2ccc(O)cc2)cc1 (stereo not shown) | 10.4 |
| Cc1ccc(C(=O)NCCN(C)C)cc1C | 7.22 |
| O=C(O)COc1ccccc1/C=N/NC(=O)CN1CCN(Cc2ccc(Cl)cc2)CC1 | 10.7 |
| CN(Cc1ccccc1)S(=O)(=O)c1ccc(OCC(=O)NCc2ccccn2)cc1 | -32.6 |
| CC1(c2ccccc2)NCCN2C(=O)CSC21.Cl (stereo not shown) | 20.5 |
| CCCCCC(=O)Nc1cccc(C2=NOC3(C2)C[C@H](C(N)=O)N(C(=O)CC)C3)c1 (stereo partly shown) | 6.18 |
| CSc1ccccc1NC(=O)c1cc2ncc(Br)cn2n1 | -0.249 |
| COc1ccccc1CNC(=O)C/C(C)=N/NC(=O)Cc1ccc(Cl)cc1 | -2.38 |
| CCOC(=O)c1ccc(NC(=O)Cn2nnc(-c3ccc(C)cc3)n2)cc1 | 6.15 |
| CNC(=O)C(=O)NCC1OCCN1S(=O)(=O)c1ccc2c(c1)OCCO2 (stereo not shown) | 5.89 |
| COc1cnc(SCc2ccc(Cl)c(Cl)c2)nc1Cl | -4.29 |
| COc1ccc(-c2nnc(SCC(=O)NC3CCCc4ccccc43)n2N)cc1 (stereo not shown) | -15.8 |
| CCC1CCCCN1C(=O)Cn1c(=O)n(CCCC(=O)NCc2ccco2)c(=O)c2sccc21 (stereo not shown) | 2 |
| O=C(NCCSc1ncc(-c2ccc(F)cc2)[nH]1)c1ccc2c(c1)OCO2 | -26.9 |
| O=C1OCCC1Sc1nc2ccccc2[nH]1 (stereo not shown) | 9.97 |
| Cc1cccc(NC(=S)NC23CN4CN(CN(C4)C2)C3)c1C | 16.9 |
| CSCCC(NC(=O)c1cc(S(=O)(=O)N2CCOCC2)ccc1F)c1nc2ccccc2[nH]1 (stereo not shown) | -5.27 |
| Cc1ccccc1NC(=O)c1cc(S(=O)(=O)Nc2cccc(C(=O)O)c2)ccc1Cl | 39 |
| COc1ccccc1N1CCN(C(=O)Cn2c(=O)[nH]c3ccsc3c2=O)CC1 | -1.18 |

| Compound | hERG current change (%, negative = inhibition) at 10uM [%] |
| --- | --- |
| CCOc1nc(NCCO)nc(Nc2ccc([N+](=O)[O-])cc2)n1 | -9.66 |
| COc1ccc(S(=O)(=O)N2CCOC2CNC(=O)C(=O)NCCc2ccccc2)cc1OC (stereo not shown) | -1.05 |
| CCOC(=O)C1CCN(S(=O)(=O)c2ccc(CN3C(=O)c4cccnc4C3=O)cc2)CC1 | -9.61 |
| Cc1cnc(C(=O)OC(C(=O)Nc2cc(C(F)(F)F)ccc2Cl)c2ccccc2)cn1 (stereo not shown) | -41.8 |
| COc1ccc(Br)cc1S(=O)(=O)N1CCN=C1c1ccccc1 | -0.359 |
| CC(Sc1ncnc2ccccc12)C(=O)Nc1ccc2c(c1)OCO2 (stereo not shown) | -14 |
| CCOC(=O)CNC(=O)c1cc(C)oc1C | -0.269 |
| O=C(COc1cccc2cccnc12)N/N=C/c1ccc(O)cc1 | 2.96 |
| O=C(NCc1cccc(Cl)c1)C1CCC(=O)N(CCN2CCOCC2)C1 (stereo not shown) | 20.5 |
| CC(C)=C1C2C=CC1C1C(=O)N(c3ccc4c(c3)OCO4)C(=O)C21 (stereo not shown) | 17.7 |
| NC(=O)c1ccc(NC(=O)C#Cc2ccccc2)cc1 | 13 |
| CCOc1ccccc1NC(=O)NCCC1=CCCCC1 | -43.7 |
| O=C(Nc1cccc(Cl)c1)c1ccc(F)c(S(=O)(=O)NCc2cccs2)c1 | -15.9 |
| CCc1ccc(NC(=O)c2noc3c2CCc2ccccc2-3)cc1 | -0.6 |
| Cc1ccc(OCCN2C(=O)C(=O)c3cccc(C)c32)cc1 | -0.255 |
| O=C(COC(=O)Cc1cccs1)Nc1cccc(S(=O)(=O)N2CCOCC2)c1 | 0.0981 |
| Cc1nn(CC(=O)N2CC(=O)Nc3ccccc32)c(C)c1[N+](=O)[O-] | 26.7 |
| Cc1cccc(CSc2cn(CC(=O)N3CCOCC3)c3ccccc23)c1 | -25.8 |
| COc1ccc(CCCc2nnc(SCC(=O)Nc3ccc(OC)cc3)o2)cc1 | 17.7 |
| Cc1cc(=O)oc2cc(OCCSc3nnc(-c4ccccc4)o3)ccc12 | -3.46 |
| CCCc1cc(=O)[nH]c(SCC(=O)N(C)CC(=O)Nc2ccc(C)cc2)n1 | -18.1 |
| CCN(CCCNC(=O)C1CCC(=O)N1Cc1ccccc1Cl)c1cccc(C)c1 (stereo not shown) | -64.5 |

| Compound | hERG current change (%, negative = inhibition) at 10uM [%] |
| --- | --- |
| CN(c1ccc(OCC(=O)N2CCOCC2)cc1)S(=O)(=O)c1ccc(Cl)cc1 | -12.3 |
| Cc1ccc(C2NC(=O)c3ccccc3O2)cc1 (stereo not shown) | 10.8 |
| CN(c1ccccc1)S(=O)(=O)c1ccc(Cl)c(C(=O)Nc2nc3ccccc3[nH]2)c1 | -1.14 |
| O=C(Nc1c(C(=O)N2CCOCC2)cnn1-c1ccccc1Cl)c1ccco1 | 9.55 |
| O=C(NCCS(=O)(=O)c1ccc(Cl)cc1)c1ccc(F)cc1 | -9.19 |
| CN(C)C(=O)CSc1nnc([C@H](Cc2ccccc2)NC(=O)OC(C)(C)C)o1 | 5.98 |
| COc1ccccc1C1=NN(C(=S)Nc2ccccc2)C(c2ccco2)C1 (stereo not shown) | 8.37 |
| Cc1cccc(C)c1-n1nnnc1S(=O)(=O)Cc1ccccc1Cl | -18.2 |
| O=C(O)c1ccc2c(c1)S(=O)(=O)N=C1CCCCCN12 | 14.2 |
| CCC(C)(C)NC(=O)C(c1cccc(OC)c1OC)N(C(=O)CCC(=O)Nc1cc(C)on1)C(C)C (stereo not shown) | 13.1 |
| COc1cccc(NC(=O)COC(=O)CCS(=O)(=O)c2ccc(C)cc2)c1 | 0.124 |
| COc1ccc(Nc2nc(C)c(-c3ccccc3)s2)cc1 | 14.9 |
| COc1ccc(-c2[nH]ncc2CN2CCN(C(=O)c3cccs3)CC2)c(F)c1 | -21.5 |
| ONC(=Nc1ccccc1Cl)c1c(F)cccc1F | 3.32 |
| COc1ccc(CNn2c(-c3cccc(C)c3)nc3ccccc3c2=O)cc1OC | -73.6 |
| Cc1cc(C)cc(N(C(=O)c2ccc3c(c2)OCO3)C2C=CS(=O)(=O)C2)c1 (stereo not shown) | -22.6 |
| CCOC(=O)Nc1ccc([N+](=O)[O-])cc1OC | 15.5 |
| Cn1c(SCC(=O)Nc2ccc(Cl)cc2F)nnc1-c1ccco1 | -59.4 |
| CN(C)C(CNC(=O)c1cccc(OC(F)F)c1)c1ccco1 (stereo not shown) | -23.4 |
| O=C(/C=C/c1cccc([N+](=O)[O-])c1)NCc1ccccc1 | -23.2 |
| COc1ccc(CCCC(=O)NCCc2ccccc2)c(C)c1 | 11.2 |
| Nc1[nH]ncc1N=Nc1ccc(Cl)cc1 | 19 |

| Compound | hERG current change (%, negative = inhibition) at 10uM [%] |
| --- | --- |
| C=CCn1c(SCc2ccccc2C#N)nnc1-c1cc(Br)ccc1O | -11.3 |
| COc1ccccc1-c1nc(C#N)c(N2CCCCCC2)o1 | -13.6 |
| Cl.OC(COc1ccc(Cl)cc1Cl)CN1CCc2ccccc2C1 (stereo not shown) | -58.6 |
| CC(C)c1ccc(/C=C(\c2nc3ccccc3[nH]2)S(=O)(=O)c2ccccc2)cc1 | 8.64 |
| Cc1nnc(NS(=O)(=O)c2ccc(Br)cc2)s1 | 26.7 |
| COc1ccc(Cl)cc1NC(=O)[C@@H]1CCCN1C(=O)c1cccs1 | -6.75 |
| COc1ccc(NS(=O)(=O)c2ccc(N3CCOCC3)c(NC(=O)c3ccc(OC)cc3)c2)cc1 | -1.38 |
| COc1ccccc1N1CCN(c2cc(C)nc3nc(C)nn23)CC1 | -57.6 |
| CN1CCN(C(=O)C2CCC(C)(C(=O)O)C2(C)C)CC1 (stereo not shown) | 4.09 |
| CN1CCN(Cc2nc3ccccc3n2C)CC1CCO (stereo not shown) | 3.83 |
| Cc1cccc(CC(Cc2nc3ccccc3[nH]2)c2nc3ccccc3[nH]2)c1 (stereo not shown) | 3.08 |
| O=c1cc[nH]c2cc(C(F)(F)F)ccc12 | 20.8 |
| CC(C)CNC(=O)c1cccc(NC(=O)c2ccccc2-c2ccccc2C(=O)O)c1 | -2.36 |
| CC(C)(C)c1ccc(S(=O)(=O)N2CCN(CC(=O)N3CC(=O)Nc4ccccc43)CC2)cc1 | -36.2 |
| CC1Cc2ccccc2N1C(=S)NC(=O)c1cccc(Br)c1 (stereo not shown) | 10.7 |
| CC1(C)Oc2ccc(C(=O)NC3CCCC3)cc2N(CC(=O)NC2CCCC2)C1=O | -14.4 |
| COc1ccc(N2CCN(C(=O)Cc3ncc(C(F)(F)F)cc3Cl)CC2)cc1 | -51.9 |
| CC(Oc1ccccc1)c1ccnn1S(=O)(=O)c1ccccc1 (stereo not shown) | 9.51 |
| COc1ccccc1-c1nnc(SCC(=O)Nc2ccc3[nH]c(=O)[nH]c3c2)n1N | 15.7 |
| C[C@H](NC(=O)c1nc[nH]c1C(=O)N[C@@H](C)C(=O)OCc1ccccc1)C(=O)OCc1ccccc1 | -11 |
| COc1ccc(C(=O)NCCc2ccc(F)cc2)cc1OC | 10.4 |
| COc1ccccc1N1CCN(C(=O)COc2ccc(Cl)cc2Br)CC1 | -18.1 |
